Test results as given in PubChem BioAssay AID687022 (Broad Institute, 2013).
The campaign covered roughly 1,000 compounds. About 360 (36%) were called active.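 The calls were made as follows: active = Fitted curve of melting temperature shift crosses the 1.0 threshold at or below the sample's highest valid tested concentration; inconclusive = Flat fit with activity 30 to 70, or invalid fit; inactive = Opposite direction, flat within 30, or no crossing.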 Most of the strongest results are missing from this list.

target: Fibroblast growth factor 22 (Homo sapiens) (UniProt Q9HCT0); assay: binders of human FGF22 protein, dose response, FGF22 synaptogenesis inhibitor project, biophysical, thermal shift, cherry-pick (AID 687022); settings: recombinant FGF22 thermal shift, SYPRO orange melting; at 38 µM (top of the series) unless noted; also: reference of the scale not given here
UniProt Q9HCT0, sequence (Q9HCT0 whole entry, looked up): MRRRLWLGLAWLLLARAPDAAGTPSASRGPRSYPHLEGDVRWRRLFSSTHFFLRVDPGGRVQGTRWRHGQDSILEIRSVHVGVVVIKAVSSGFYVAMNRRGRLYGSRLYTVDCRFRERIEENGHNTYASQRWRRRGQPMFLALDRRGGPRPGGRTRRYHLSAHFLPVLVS

| SMILES | Tm shift activity |
| --- | --- |
| C/C=C/c1ccc([C@H]2[C@@H](CO)N(C(=O)CC)C23CN(C(=O)c2ccccc2)C3)cc1 | inactive: -0.234% |
| COCC(=O)N(C)C[C@@H]1Oc2cc(C#Cc3ccccc3)ccc2S(=O)(=O)N([C@@H](C)CO)C[C@H]1C | inactive: 16.2% [at 42 µM] |
| Cc1ccc(S(=O)(=O)Nc2ccc3c(c2)CC(=O)N([C@H](C)CO)C[C@@H](C)[C@H](CN(C)C(=O)Nc2ccccc2)O3)cc1 | inactive: -0.162% |
| CC(C)C#Cc1ccc([C@H]2[C@@H](CO)N3C(=O)CN(C(=O)C4CCCCC4)C[C@@H]23)cc1 | inactive: -0.12% |
| O=C(N[C@@H]1CC[C@H](CC(=O)N2CCN(c3ccccc3)CC2)O[C@@H]1CO)c1ccccc1 | inactive: 0.093% [at 42 µM] |
| Cc1ccc(S(=O)(=O)N(C)C[C@H]2Oc3ncc(Br)cc3C(=O)N([C@@H](C)CO)C[C@H]2C)cc1 | inactive: -0.244% [at 42 µM] |
| COc1cc(/C=C2\CCn3c2nc2cc(C(=O)O)ccc2c3=O)ccc1OC(F)F | inactive: 0.063% [at 5 µM] |
| NC(c1ccc(F)c(F)c1)c1nc(-c2cncnc2)cs1 (configuration not stated) | inactive: 0.033% |
| COc1ccc(N=NC2C(=O)N(c3ccccc3)N=C2C)cc1 (configuration not stated) | inactive: -0.121% |
| CNC(=O)C[C@@H]1CC[C@@H]2[C@@H](COc3ccc(NS(=O)(=O)c4ccccc4C)cc3C(=O)N2C)O1 | inactive: -0.276% [at 42 µM] |
| O=C(CN1CCCC1)Nc1ccc(OC(F)(F)F)cc1 | inactive: 0.137% |
| Cc1ccccc1-c1ccc([C@H]2[C@@H](CO)N3CCCCN(Cc4cccnc4)C[C@H]23)cc1 | inactive: -0.108% [at 42 µM] |
| O=C(C[C@H]1CC[C@H]2[C@@H](COC[C@H](O)CN2S(=O)(=O)c2cccc(Cl)c2)O1)Nc1ccccc1 | inactive: -0.014% [at 42 µM] |
| CCC(C)NS(=O)(=O)c1ccc(S(=O)(=O)N2CC=C(c3ccc(F)cc3)CC2)cc1 (configuration not stated) | inactive: 0.017% |
| CC(C)NC(=O)Nc1ccc2c(c1)C(=O)N([C@H](C)CO)C[C@@H](C)[C@@H](CN(C)C(=O)Nc1ccccc1)OCCCC[C@@H](C)O2 | inactive: -0.149% |
| COc1cc(NS(=O)(=O)c2ccc(NS(=O)(=O)c3ccc(NC(C)=O)cc3)cc2)nc(OC)n1 | inactive: 0.392% |
| CCNC(=O)C[C@H]1CC[C@@H]2[C@H](COC[C@H](O)CN2C(=O)C2CCOCC2)O1 | inactive: 0.078% |
| OC[C@@H]1[C@H](c2ccc(-c3cccnc3)cc2)[C@H]2CN(Cc3ccccn3)CCCCN12 | inactive: 0.193% |
| COc1ccccc1S(=O)(=O)N(C)C[C@@H]1Oc2cc(C#CCC(C)C)ccc2S(=O)(=O)N([C@@H](C)CO)C[C@H]1C | inactive: 0.178% [at 42 µM] |
| O=C(O)c1[nH]c2ccc(Br)cc2c1CCN1C(=O)c2cccc([N+](=O)[O-])c2C1=O | inactive: -0.205% |
| CC(C)C[C@@H](CN(C)N=O)N(C[C@H](Cc1ccccc1)N(CCc1ccccc1)N=O)N=O | inactive: 0.389% |
| Cc1ccc(S(=O)(=O)N2C[C@H](O)COC[C@H]3O[C@H](CC(=O)NCc4ccc(Cl)c(Cl)c4)CC[C@@H]32)cc1 | inactive: -5.17% [at 42 µM] |
| C[C@@H]1CN([C@H](C)CO)S(=O)(=O)c2ccc(C3=CCCCC3)cc2O[C@H]1CN(C)C(=O)CN(C)C | inactive: -0.023% [at 42 µM] |
| COC(=O)[C@]1(C)N[C@H](c2ccc(-c3ccccc3)cc2)[C@@H]2C(=O)N(C)C(=O)[C@@H]21 | inactive: -0.021% |

| SMILES | Tm shift activity |
| --- | --- |
| O=C1C=CCCN1C(=O)/C=C/c1ccc(F)cc1 | inactive: -0.322% |
| Cc1ccc(S(=O)(=O)N[C@@H]2C=C[C@@H](CC(=O)N3CCc4ccccc4C3)O[C@@H]2CO)cc1 | inactive: -0.018% |
| CC(C)NC(=O)Nc1ccc2c(c1)C(=O)N([C@@H](C)CO)C[C@@H](C)[C@@H](CN(C)C(=O)Nc1ccccc1)OCCCC[C@@H](C)O2 | inactive: 0.051% |
| CC(=O)Nc1ccc2nc(NC(=O)COc3ccc(C)cc3)sc2c1 | inactive: 0.473% |
| OC[C@@H]1[C@@H](c2ccc(-c3cccnc3)cc2)[C@H]2CN(Cc3ccccn3)CCCCN12 | inactive: -0.124% |
| CC(=O)c1cccc(NC(=O)C2CCCN2S(=O)(=O)c2cccs2)c1 (configuration not stated) | inactive: 0.238% |
| CCc1nnc(NC(=O)CN2CCN(Cc3ccc(C)cc3)CC2)s1 | inactive: -0.143% |
| c1ccc(NCc2ccccn2)cc1 | inactive: 0.047% |
| CC(=O)N(C)C[C@@H]1Oc2ncc(C#CC(C)(C)O)cc2C(=O)N([C@@H](C)CO)C[C@H]1C | inactive: -0.011% |
| O=C(NC1CCCCC1)N1CC(=O)N2[C@H](C1)[C@@H](c1ccc(-c3cccc(F)c3)cc1)[C@@H]2CO | inactive: -4.11% |
| CC(OC(=O)c1ccccc1)C(=O)NCCC1=CCCCC1 (configuration not stated) | inactive: -0.183% |
| O=C(C[C@@H]1CC[C@H]2[C@@H](COC[C@@H](O)CN2C(=O)c2ccc(F)cc2)O1)NCc1cccc(F)c1 | inactive: -0.491% |
| O=C(NCC1CCCCC1)c1cccnc1Cl | inactive: -0.036% |
| O=C(COc1ccc2c(c1)oc(=O)c1ccccc12)NC(Cc1ccc(Cl)cc1)C(=O)O (configuration not stated) | inactive: 0.527% [at 5 µM] |
| O=C(Nc1ccsc1C(=O)O)c1cccc(C(F)(F)F)c1 | inactive: -0.203% |
| Cc1ccc(C)c(N2CCN(C(=O)C34CC5CC(C3)CC(n3nnc(C)n3)(C5)C4)CC2)c1 | inactive: -0.282% |
| OC[C@@H]1[C@H](c2ccc(Br)cc2)[C@@H]2CN(Cc3cncnc3)CCCCN12 | inactive: -0.264% [at 42 µM] |
| OC[C@H]1[C@@H](c2ccc(-c3cccnc3)cc2)[C@@H]2CN(Cc3ccccn3)CCCCN12 | inactive: -0.15% |
| CC(C)NC(=O)N1C[C@H]2[C@@H](c3ccccc31)[C@H](CO)N2C(=O)c1cccnc1 | inactive: 0.104% |
| COc1ccc(S(=O)(=O)N(C)C[C@@H]2Oc3ccc(NC(=O)Nc4ccccc4)cc3CC(=O)N([C@H](C)CO)C[C@@H]2C)cc1 | inactive: -0.087% [at 42 µM] |
| CSc1ncccc1C(=O)Nc1ccc(S(=O)(=O)N2CCCC2)cc1 | inactive: 0.298% |
| Cc1nc(Oc2ccccc2)c2ccsc2n1 | inactive: 0.015% |
| N#C/C(=C\c1ccc(N2CCOCC2)c([N+](=O)[O-])c1)c1nc2ccccc2[nH]1 | inactive: 0.123% |
| Cn1c(=O)[nH]c(=O)c2c1nc(SCC(O)CO)n2CCCc1ccccc1 (configuration not stated) | inactive: -0.205% |

| SMILES | Tm shift activity |
| --- | --- |
| C[C@@H]1CN([C@H](C)CO)C(=O)c2cc(NS(C)(=O)=O)ccc2O[C@@H](C)CCCCO[C@H]1CN(C)Cc1ccncc1 | inactive: -0.062% [at 42 µM] |
| O=C(c1ccccc1)N1CC2(C1)[C@H](c1ccccc1)[C@H](CO)N2Cc1cc(F)ccc1F | inactive: 0.232% [at 42 µM] |
| CC(=O)Nc1ccc2sc(C)nc2c1 | inactive: 0.077% |
| COCCN(C(=O)C(C)C)c1nnc(-c2ccc(C(C)(C)C)cc2)s1 | inactive: -0.124% |
| Cc1noc(C)c1S(=O)(=O)Nc1ccc2c(c1)CC(=O)N([C@H](C)CO)C[C@@H](C)[C@H](CN(C)S(C)(=O)=O)O2 | inactive: 0.04% |
| C/C=C/c1ccc([C@H]2[C@@H](CO)N(CC3CCOCC3)C23CN(C(=O)COC)C3)cc1 | inactive: -0.301% [at 42 µM] |
| CO[C@@H]1CN(C)C(=O)c2ccc(NS(=O)(=O)c3ccc(Oc4ccccc4)cc3)cc2OC[C@H](C)NC[C@@H]1C | inactive: -0.378% [at 42 µM] |
| C[C@H]1CN([C@@H](C)CO)C(=O)c2cc(NS(=O)(=O)c3ccccc3)ccc2O[C@@H]1CN(C)C | inactive: -0.047% |
| C[C@@H]1CN([C@@H](C)CO)C(=O)c2cccc(N(C)C)c2O[C@H]1CN(C)Cc1ccc(C(=O)O)cc1 | inactive: -0.219% [at 42 µM] |
| CN1CCC(C)(C(=O)Nc2cccc3c2CCCC3)C1 (configuration not stated) | inactive: -0.072% |
| O=C(C[C@H]1C[C@@H]2c3cc(NC(=O)NC4CCCC4)ccc3O[C@@H]2[C@H](CO)O1)NCc1ccc2c(c1)OCO2 | inactive: -0.035% |
| C[C@H]1CN([C@@H](C)CO)C(=O)c2cccc(NC(=O)Nc3ccc4c(c3)OCO4)c2O[C@H]1CN(C)S(=O)(=O)c1cn(C)cn1 | inactive: -0.279% |
| O=C(C(=O)N1CCC(CNS(=O)(=O)Cc2ccccc2)CC1)c1cccs1 | inactive: -0.203% |
| COc1ccc(S(=O)(=O)Nc2ccc3c(c2)C(=O)N([C@@H](C)CO)C[C@@H](C)[C@@H](CN(C)C)OCCCC[C@@H](C)O3)cc1 | inactive: -0.192% [at 42 µM] |
| Cn1cccc1/C=N/NC(=O)Cc1cccc2ccccc12 | inactive: -0.271% |
| COc1ccc(CN(C)C[C@H]2Oc3ccc(NC(=O)Cc4ccccc4)cc3C(=O)N([C@@H](C)CO)C[C@H]2C)cc1 | inactive: 0.038% |
| O=[N+]([O-])c1ccc2nc(-c3ccc(Cl)cc3)[nH]c2c1 | inactive: 0.366% |
| O=C(c1cccc(F)c1)N1C[C@H]2[C@@H](c3ccccc31)[C@@H](CO)N2C(=O)c1ccccn1 | inactive: -0.197% [at 42 µM] |
| CC(C)(CNCc1ccccc1)NS(=O)(=O)c1ccc(Cl)cc1 | inactive: -0.043% |
| COc1ccc(N2CCN(CCOc3ccc4c(C)cc(=O)oc4c3)CC2)cc1 | inactive: -0.063% |
| O=c1ccc2cc(S(=O)(=O)Nc3ccc(Br)cc3)ccc2o1 | inactive: 0.009% |
| CCNc1c(NS(=O)(=O)c2ccc(Br)s2)c(=O)oc2ccccc12 | inactive: -0.125% |
| CCC(=O)N(NC1=NS(=O)(=O)c2ccccc21)S(=O)(=O)c1ccc(C)cc1 | inactive: -0.105% |
| O=C(NCC(=O)N(CC1CCCO1)C(C(=O)NC1CCCCC1)c1cccnc1)c1cccs1 (configuration not stated) | inactive: 0.189% |
